PubChem BioAssay AID686979 (National Center for Advancing Translational Sciences (NCATS), 2013)
Among all 420,000 compounds or so, about 50,000 (12%) were called active. Inconclusive means that the source gave no clear call. Such entries were picked first, then a sample of the others. Calls come from the whole dose curve; as a rule, active = well fitted inhibition curve with a large enough effect; inconclusive = small, poorly fitted or top-dose-only effect; inactive = flat fitted curve, though single readings scatter. Potencies of inconclusive entries are left out as doubtful fits. Where a SMILES comes first, the peptide text is derived from it. Bridges are numbered along the chain shown (N, C = ends). [ ]: non-standard residue; d: D form. The star is where a group is joined. Dab(CH2SO3H) = N[C@@H](CCNCS(=O)(=O)O)C(=O)O; X10 = CC[C@@H](C)CCCCC(=O)*; Dab = NCC[C@H](N)C(=O)O

Assay: qHTS for Inhibitors of human tyrosyl-DNA phosphodiesterase 1 (TDP1): qHTS in cells in presence of CPT; note: nearly all actives have a fitted effect of over 55% in size
Conditions: chicken DT40 Tdp1-/-;hTDP1 cells + 20 nM CPT, ATP luminescence, 48 h; activity change, negative = growth inhibition: at 46.2 µM (top of the series) unless noted
How it was run: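 Chicken DT40 Tdp1-/- cells complemented with human TDP1, 400 cells/well, exposed to compounds plus 20 nM camptothecin for at least 48 h at 37 C; viability read as ATP content by CellTiter-Glo luminescence.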
% is set by controls: 0 for no effect and ±100 for the full control effect; potency is the fitted concentration of half-maximal effect; tags give direction and shape of the fitted curve.

| SMILES | Potency | activity change, negative = growth inhibition |
| --- | --- | --- |
| CCOc1ccccc1C(C(=O)NCCOC)N(CCOC)C(=O)Cn1nnc2ccccc21 (configuration not stated) | inactive | – |
| CCC(CO)NCc1ccc(OCC(O)c2ccccc2)c(OC)c1 (configuration not stated) | inactive | – |
| CC1CN(S(=O)(=O)c2ccc(C(=O)NC3CCCCC3)cc2)CC(C)O1 (configuration not stated) | inactive | – |
| COc1ccc(NS(=O)(=O)c2cccc(NC(=O)C34CCC(CC3)C4)c2)cc1 | inconclusive [inhibitor, single point] | – |
| CCn1c(CNC(=O)COc2ccc(C(C)C)cc2)nnc1SCC(=O)Nc1ccccc1C(C)C | active: 16.4 µM | – |
| Cc1cc(C(=O)N2CCCC(N3CCN(c4cccc(Cl)c4)CC3)C2)nn1C (configuration not stated) | inconclusive [inhibitor, partial curve] | – |
| CC1(C(=O)NCc2ccccc2Br)CCN1Cc1ccc2ccccc2c1 (configuration not stated) | active: 20.6 µM | – |
| COc1ccc(Cl)cc1NC(=O)CN(C)CC(=O)Nc1ccccc1C(F)(F)F | inactive | – |
| Clc1ccccc1COc1ccc(/C=N/n2cnnc2)cc1 | inconclusive [inhibitor, single point] | – |
| CCCCn1nnnc1C(c1ccccc1)N1CCN(c2ccc(F)cc2)CC1 (configuration not stated) | inconclusive [inhibitor, single point] | – |
| CCOc1cccc(NC(=O)Cn2nc(-c3ccc4c(c3)OCCO4)ccc2=O)c1 | inconclusive [inhibitor, partial curve, poor fit] | – |
| COC(Cn1c2c(c3cc(C)ccc31)CCCC2NCc1ccccc1)OC (configuration not stated) | inconclusive [inhibitor, single point] | – |
| CCOC(=O)CSc1nc2c(sc(=S)n2-c2ccccc2OC)c(=O)n1Cc1ccco1 | inactive | – |
| Cc1ccc(S(=O)(=O)Nc2cc(-c3nn(C)c(=O)c4ccccc34)ccc2N2CCOCC2)cc1 | inconclusive [inhibitor, single point] | – |
| O=c1cc(CSc2nnc(Nc3ccccc3F)s2)nc2sccn12 | inconclusive [inhibitor, single point] | – |
| COc1ccc(NC(=O)CN(C)CC(=O)Nc2ccccc2SC)cc1Cl | inconclusive [inhibitor, partial curve, poor fit] | – |
| Nc1ccc(SC(F)(F)F)cc1C(=O)c1ccccc1 | inconclusive [inhibitor, single point] | – |
| CCOc1ccc(N(CC(=O)Nc2c(C)n(C)n(-c3ccccc3)c2=O)S(=O)(=O)c2ccc(F)cc2)cc1 | – | inconclusive: -55.7% [inhibitor] |
| CCC(CO)Oc1cc(NCc2ccccc2C)c2ncn(C(C)C)c2c1 (configuration not stated) | inconclusive [inhibitor, single point] | – |
| CC(=O)Nc1cccc(-c2cc(NC=O)c3ncc(-c4ccc(C(C)=O)cc4)n3c2)c1 | inconclusive [inhibitor, single point] | – |
| C[C@H]1CN=C(Nc2ccccc2)N1CC1CCCCC1 | inconclusive [inhibitor, single point] | – |

| SMILES | Potency | activity change, negative = growth inhibition |
| --- | --- | --- |
| COc1cccc(NC(=O)Nc2ccc3snnc3c2)c1 | inconclusive [inhibitor, single point] | – |
| CC(C)(O)[C@@H]1CC[C@@](C)(C2CC[C@]3(C)C2[C@H](O)CC2[C@@]4(C)CC[C@H](O)C(C)(C)C4[C@@H](O[C@H]4O[C@@H](CO)[C@H](O)[C@@H](O)[C@@H]4O[C@@H]4O[C@H](CO)[C@@H](O)[C@H](O)[C@H]4O)C[C@]23C)O1 (stereo in doubt) | inactive | – |
| Cc1cc2oc(=O)cc(CN3CCCCC3C)c2cc1C(C)C (configuration not stated) | inconclusive [inhibitor, single point] | – |
| COCCNC(=O)c1cc2c(=O)n3cccc(C)c3nc2n(Cc2ccncc2)c1=N | inconclusive [inhibitor, single point] | – |
| COc1cc([N+](=O)[O-])ccc1NC(=O)N1CCC2(CC1)Nc1ccccc1-n1cccc12 | inconclusive [inhibitor, single point] | – |
| CCn1cc(C(=O)NCCN(CC(C)C)CC(C)C)c(=O)c2cc(S(=O)(=O)N(C)C3CCCCC3)ccc21 | inconclusive [inhibitor, single point] | – |
| CCOC(=O)C1CCCN(C(=O)CCNS(=O)(=O)c2ccc3c(c2)CCC(=O)N3)C1 (configuration not stated) | inconclusive [inhibitor, single point] | – |
| Nc1c(C(=O)NCc2ccco2)c2nc3ccccc3nc2n1CCc1ccccc1F | active: 16.4 µM | – |
| COc1ccc(-n2ccnc2CN2CCCC(CO)(Cc3cccc(OC)c3)C2)cc1 (configuration not stated) | inconclusive [inhibitor, single point] | – |
| Cc1cccc(CCNC(=O)c2cc3c(=O)[nH]c4ccc(C)cc4c3s2)c1 | inactive | – |
| COc1ccc(-c2noc(CCC(=O)N3CCN(c4cccc(OC)c4)CC3)n2)cc1 | inconclusive [inhibitor, single point] | – |
| Cc1ccc(C)c2[nH]c(=O)c(CN(CCCN(C)C)C(=O)NCc3ccccc3)cc12 | inconclusive [inhibitor, single point] | – |
| Cc1ccc(N/N=C/c2c(C)c(C#N)c(=O)n(C)c2O)cc1C | inconclusive [inhibitor, single point] | – |
| CCNc1ncc2ncc(=O)n(Cc3ccc(F)cc3)c2n1 | active: 18.4 µM | – |
| N/C(=C\C(=O)c1cc(Cl)ccc1O)C(Cl)(Cl)Cl | active: 3.66 µM | – |
| CC[C@@H](C)CCCCC(=O)N[C@@H](CCNCS(=O)(=O)O)C(=O)N[C@H](C(=O)N[C@@H](CCNCS(=O)(=O)O)C(=O)N[C@H]1CCNC(=O)[C@H]([C@@H](C)O)NC(=O)[C@H](CCNCS(=O)(=O)O)NC(=O)[C@H](CCNCS(=O)(=O)O)NC(=O)[C@H](CC(C)C)NC(=O)[C@@H](CC(C)C)NC(=O)[C@H](CCNCS(=O)(=O)O)NC1=O)[C@@H](C)O (X10-[Dab(CH2SO3H)]T[Dab(CH2SO3H)][Dab][Dab(CH2SO3H)][dL]L[Dab(CH2SO3H)][Dab(CH2SO3H)]T; lactam 4-C) | inconclusive [inhibitor, single point] | – |
| N#Cc1cccc(NC(=O)CNc2cccc(S(=O)(=O)N3CCCCC3)c2)c1 | inconclusive [inhibitor, single point] | – |
| CC(C)(C)c1ccc(OCC(=O)N(c2ccccn2)C2CCCCC2)cc1 | inconclusive [inhibitor, single point] | – |
| Cn1c(OCC2CCCO2)nc2cc(-c3ccccc3)sc2c1=O (configuration not stated) | active: 23.1 µM | – |
| CS(=O)(=O)c1ccc2nc(NC(=O)c3cc4ccccc4o3)sc2c1 | inconclusive [inhibitor, single point] | – |
| COCCn1c(SCC(=O)NC(=O)NCc2ccccc2)nc2ccccc2c1=O | inactive | – |

| SMILES | Potency | activity change, negative = growth inhibition |
| --- | --- | --- |
| O=C(C1CCCCC1)N1CCN(c2ccnc3cc(Cl)ccc23)CC1 | active: 10.3 µM | – |
| CCN(CC)C(=O)c1cccc(-c2csc(C(O)(c3ccccc3)C(F)(F)F)n2)c1 (configuration not stated) | inconclusive [inhibitor, single point] | – |
| Cn1c(=O)n(C)c2cc(N3CCOCC3)c(NC(=O)c3ccc(C(C)(C)C)cc3)cc21 | inactive | – |
| O=C(c1cc(COc2ccc(F)c(F)c2)on1)N1CCN(C/C=C/c2ccccc2)CC1 | inconclusive [inhibitor, single point] | – |
| CCOC(=O)[C@]12CCC=C1N(Cc1ccc(Cl)cc1Cl)C(=O)[C@H](CC(=O)NCc1cccc3ccccc13)C2 | inconclusive [inhibitor, single point] | – |
| CN(CC(=O)Nc1ccccc1Cl)C(=O)Cn1cnc2ccccc2c1=O | inconclusive [inhibitor, single point] | – |
| CCCCN(CCCC)Cc1cc(=O)oc2cc(C)cc(C)c12 | inconclusive [inhibitor, single point] | – |
| CCc1ccccc1NC(=O)C(CC)Sc1nc2cc3c(cc2c(=O)n1Cc1ccco1)OCO3 (configuration not stated) | active: 16.4 µM | – |
| CCOC(=O)c1cc(-c2ccccc2)sc1NC(=O)CN1C(=O)NC(CC)(c2ccc(F)cc2)C1=O (configuration not stated) | inconclusive [inhibitor, partial curve, poor fit] | – |
| CCCCOc1ccccc1Cn1c(=O)sc2ccccc21 | inconclusive [inhibitor, single point] | – |
| CC#CC[N+](C)(C)CC(=O)c1ccccc1 | inactive | – |
| N#Cc1cccnc1N1CCN(C(=O)c2ccco2)CC1 | inactive | – |
| CSc1ncc(Cl)c(C(=O)C(C#N)c2nc3c(C)cc(C)cc3c(=O)[nH]2)n1 (configuration not stated) | inconclusive [inhibitor, single point] | – |
| COc1cccc(NC(=O)CN(C)C(=O)c2ccc(Cl)c(S(=O)(=O)N3CCCCCC3)c2)c1 | inconclusive [inhibitor, partial curve, poor fit] | – |
| COc1ccc(OC)c(CN2CCN(Cc3ccc(OC)c(OC)c3OC)CC2)c1 | inactive | – |
| CCOc1ccccc1NC1=C(Cl)C(=O)N(Cc2ccccc2)C1=O | inconclusive [inhibitor, single point] | – |
| CCOc1ccc(C(=O)Nc2cccc(NC(=O)c3ccc(Cl)cc3Cl)c2)cc1 | inconclusive [inhibitor, single point] | – |
| CSc1ccccc1NC(=O)COC(=O)c1ccccc1Cc1ccccc1 | inactive | – |
| C=C[C@H]1C(C(=O)OCC)=CC[C@@H](c2ccccc2)N1S(=O)(=O)c1ccc(C)cc1 | active: 23.1 µM | – |
| CCCSc1ncc(Cl)c(C(=O)Nc2ccc(S(=O)(=O)N3CC(C)OC(C)C3)cc2)n1 (configuration not stated) | inconclusive [inhibitor, single point] | – |
